This passage reports median percentage of T cells expressing TCRαβ after PEBL transduction results from US20190038733A1.

The target of the assay is CD3ε (human CD3 epsilon subunit, expressed from cDNA in K562 cells; endogenous in Jurkat cells and T lymphocytes) (human) (UniProt P07766). Description: cell-based or functional assay.

B1: anti-CD3ε Protein Expression Blockers (PEBLs): PLU4-derived scFv linked to a retention-signaling / localizing domain (scFv, part only; not given: localizing domain of each construct, part only)
scFv, part: QIVLTQSPAIMSASPGEKVTMTCSASSSVSYMNWYQQKSGTSPKRWIYDTSKLASGVPAHFRGSGSGTSYSLTISGMEAEDAATYYCQQWSSNPFTFGSGTKLEINRGGGGSGGGGSGGGGSGGGGSEVQLQQSGAELARPGASVKMS[… about 80 residues …]WGQGTTLTVSSA
B1 showed a median percentage of T cells expressing TCRαβ after PEBL transduction of 25%.
